Experimental data published in the supplement of paper PMC3334620.
Over roughly 33,000 sequences, “E-score (-0.5 to 0.5)” has its median near -0.036; the highest 2% begin near 0.37. Some of the results follow.

biological target: T1, Yer064c (UniProt P40041); assay: PBM E-score (8-mer binding enrichment) (E-score (-0.5 to 0.5)); higher = stronger / more preferred TF binding; most listed sequences are background and not binding sites; settings: protein concentration: 200 nM; construct: GST-full length
T1 sequence: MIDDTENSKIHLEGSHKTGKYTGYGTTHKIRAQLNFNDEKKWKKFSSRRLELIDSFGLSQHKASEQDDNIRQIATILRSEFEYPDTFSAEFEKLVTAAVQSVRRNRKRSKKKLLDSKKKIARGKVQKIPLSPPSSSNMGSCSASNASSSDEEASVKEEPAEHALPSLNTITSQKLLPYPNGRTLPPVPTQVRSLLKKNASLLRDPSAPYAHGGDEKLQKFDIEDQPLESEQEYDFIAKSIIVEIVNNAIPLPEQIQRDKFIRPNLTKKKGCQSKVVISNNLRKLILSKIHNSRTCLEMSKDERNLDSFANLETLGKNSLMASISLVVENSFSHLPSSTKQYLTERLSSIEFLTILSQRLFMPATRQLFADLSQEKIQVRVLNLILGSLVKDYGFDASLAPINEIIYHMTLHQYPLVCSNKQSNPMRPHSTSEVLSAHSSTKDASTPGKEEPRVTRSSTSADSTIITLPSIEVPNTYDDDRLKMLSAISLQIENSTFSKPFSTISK
Outline: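 Universal all-10-mer Agilent arrays, double-stranded by primer extension on fresh or once-stripped slides, were probed with about 100-200 nM GST-tagged yeast transcription factors made by PURExpress. Fluorescent anti-GST detected bound protein, and masliner normalised the scans. E-scores from the Universal PBM Analysis Suite were given to each ungapped eight-base word pooled with its reverse complement.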

Row | Sequence | PBM E-score
1 | GCGGACCA | -0.0691
2 | CAAGAGCC | 0.00459
3 | CTTGAACA | -0.138
4 | AAGCCGGA | -0.19
5 | AACGTCGC | -0.181
6 | CAGGGGAC | -0.0814
7 | CGATGGCG | 0.0101
8 | AATCCGGT | 0.0049
9 | TATCTGCA | -0.0107
10 | ACCTCCCG | -0.268
11 | AAATTCTT | -0.126
12 | GGCTCCTA | -0.261
13 | TACAAGGA | 0.0157
14 | CTTCACCC | -0.0182
15 | GTTACGAA | -0.142
16 | ACGTGCAA | -0.176
17 | GAAACCAC | 0.0141
18 | CAGCCCGC | 0.0809
19 | CAAACACG | -0.111
20 | GACTAGAC | 0.286
21 | TGCGCTAA | 0.0622
22 | GCCGTTCC | -0.225
23 | TATCTTGA | 0.0512
24 | CAGCAAAG | 0.00732
25 | ATTGGCAG | 0.0789

Row | Sequence | PBM E-score
26 | ACGCTGCC | -0.129
27 | AGTCTCTC | 0.3
28 | GTCTCGAA | 0.0844
29 | AAACAATA | 0.155
30 | CCTAAGCC | -0.208
31 | CAAACCAG | -0.101
32 | CCCGAACC | -0.186
33 | GGTAACAC | 0.122
34 | GGTCCTGA | -0.0819
35 | CCGGTGCG | 0.0328
36 | CAGTGGTC | 0.0376
37 | CCTTATAC | -0.0382
38 | CAGTCACG | 0.413
39 | CCTGGTAG | -0.295
40 | CACACGCA | -0.0706
41 | CACACCGG | -0.0864
42 | CTGCTGGC | -0.248
43 | AAATATTT | 0.177
44 | ACCGTCCG | -0.319
45 | CCACTCTA | 0.0684
46 | AATTTTCA | -0.0286
47 | GACACTCA | 0.0855
48 | ACAGCTTG | 0.0501
49 | CTGCCAGA | -0.14
50 | ACTCCACT | 0.183

Row | Sequence | PBM E-score
51 | TAATGCGA | 0.0426
52 | CTTTCACC | -0.101
53 | AGTACACC | 0.0591
54 | ATATACCG | 0.0634
55 | CGCAGCTA | 0.097
56 | TCCTACGA | 0.0576
57 | TTCCCGAA | -0.226
58 | AGTGGGGA | -0.228
59 | AAGCTCTC | -0.236
60 | AGTTACTC | 0.258
61 | ACTGTGTA | 0.193
62 | ATATTTTG | 0.101
63 | ACGCTATA | -0.146
64 | CCTTTTAG | 0.00296
65 | AAATTGAC | 0.119
66 | ATATATAA | 0.0961
67 | ATGTCTCA | 0.414
68 | CCCGTATA | -0.173
69 | CCACACTC | -0.0127
70 | ACTCTGCT | 0.0892
71 | ATGCGAGC | -0.21
72 | ATACAAAA | 0.156
73 | GCACGTAC | -0.196
74 | ACACTTTC | -0.0867
75 | ACAAAGAC | 0.201

Row | Sequence | PBM E-score
76 | GCTGTGTA | 0.108
77 | CTCTAAGC | -0.0687
78 | CATAGGGA | -0.00985
79 | CCCCCTCA | -0.332
80 | CCGAATAG | -0.139
81 | ACCTAGGC | -0.181
82 | CATCAGTC | 0.321
83 | ACGTGGAT | -0.0488
84 | ACCCCAAC | -0.0468
85 | ACGCAGTG | -0.0716
86 | ATGTACAA | -0.165
87 | ACGGTACC | -0.12
88 | ACAATATA | -0.0177
89 | CTCCAGTA | 0.0727
90 | CTATGCAA | -0.0674
91 | CGCTCCTC | -0.18
92 | ACTGCCAT | 0.0149
93 | TAACCAGA | 0.0739
94 | ACCGGGAT | -0.146
95 | ACCCTACG | -0.0986
96 | AGTCATAC | 0.486
97 | CGTTCCGA | -0.059
98 | GCACATCC | -0.099
99 | GGGAGGCA | -0.0617
100 | ATCCTCTC | -0.0686

Row | Sequence | PBM E-score
101 | GTCGCAAA | 0.0577
102 | CGTACCCC | -0.0666
103 | AGGCTGTA | 0.0748
104 | ACAAAGAT | 0.101
105 | ACATTATC | -0.0242
106 | AATTCCTA | 0.199
107 | CTAGGCAG | -0.0118
108 | ACATGGAA | -0.126
109 | ACACCGGT | -0.114
110 | GAGTCACA | 0.493
111 | CCACAACA | -0.178
112 | CGACCAGC | -0.303
113 | AGTCTTAA | 0.387
114 | CCATAACA | 0.0487
115 | ACCGCTCG | -0.201
116 | CTAGCTAA | 0.0229
117 | GTTGAGTA | 0.292
118 | ATTGGGTC | -0.0594
119 | ATTTCTAA | -0.172
120 | AGCGCGAC | 0.15
121 | CCCAGAAC | -0.0764
122 | AATCCTAC | -0.0673
123 | ATTCGGCA | -0.0455
124 | AGTCCAGC | 0.0731
125 | CATCAAGC | 0.0135

Row | Sequence | PBM E-score
126 | GGCCGCCC | -0.257
127 | GGTTAACC | 0.329
128 | AAGCGTCA | -0.0121
129 | AACCTTTG | -0.0673
130 | AACATTCC | -0.199
131 | CGATTCCA | -0.102
132 | AGGTTACC | -0.0652
133 | CGAGGTTC | -0.0505
134 | ATGAAACC | 0.0106
135 | AGTCCCAA | 0.236
136 | AATTGTGA | 0.185
137 | CGGAGTTC | -0.146
138 | TGTGAGAA | 0.0508
139 | ACGGGATC | -0.171
140 | GAGAGTCA | 0.481
141 | TCCACCCA | -0.0817
142 | GCACTGAA | -0.155
143 | ATCAGCTC | 0.0634
144 | ATGTAGTA | 0.0442
145 | TAAGTCTA | 0.053
146 | CTAACCCA | 0.213
147 | CGGCCCCC | -0.321
148 | TGTTGAAA | 0.0239
149 | CTTTAGGA | 0.146
150 | AAGCTGTG | -0.12

Row | Sequence | PBM E-score
151 | ATGAGCTA | 0.104
152 | GGGATTTA | -0.225
153 | ACCATCAT | 0.123
154 | GTTAAATA | 0.137
155 | GAACGGCA | -0.132
156 | CAGCACGA | -0.0349
157 | CACGTAAC | -0.104
158 | GCCGCTAC | -0.261
159 | AGTATGTG | 0.0421
160 | CACTATCA | -0.0721
161 | TCTTTGAA | 0.0685
162 | GAACAAAA | 0.0375
163 | CAGTTCAA | -0.0435
164 | AACCAAAA | 0.011
165 | CCCACATA | 0.0317
166 | ATTTCTAG | -0.0357
167 | ACCCAGGA | -0.127
168 | CCAGCACA | -0.0355
169 | CGCTCCGC | -0.26
170 | GTAGTGAA | -0.0203
171 | TAGGCTAA | -0.141
172 | CACGCGAA | -0.107
173 | AATCTGCA | -0.0558
174 | CACAAGTG | -0.0715
175 | GTGTATGA | 0.216

Row | Sequence | PBM E-score
176 | ACGGTTAA | 0.0809
177 | ATGATCGG | -0.0977
178 | ATCCTTTA | 0.124
179 | ATTTATGA | 0.236
180 | AGAGGTAT | 0.146
181 | CGTTTGAC | 0.0916
182 | AAATTATC | 0.0717
183 | GTGTAGGA | -0.0235
184 | AGATTGAC | 0.227
185 | GACGTAAC | -0.00076
186 | GAAGGATA | 0.0607
187 | ACAGGCGC | -0.132
188 | AGCAGAAG | -0.0731
189 | TCGTATCA | 0.123
190 | GAGCGCAA | -0.139
191 | GCGGGTTA | 0.0254
192 | CCGCGAGA | -0.014
193 | CGAGTCAC | 0.477
194 | ATCTAGAT | 0.0739
195 | AGGTTTGG | -0.133
196 | ACAAGTCC | -0.047
197 | CAGTGCCA | -0.307
198 | CTCTTAGC | 0.0139
199 | ATCAGTCA | 0.434
200 | ATGAACTC | 0.248

Row | Sequence | PBM E-score
201 | GAATAACA | 0.0178
202 | GACCACTA | 0.0368
203 | AAATTGCG | -0.043
204 | AATAGACA | 0.0418
205 | AGGAGAAA | -0.108
206 | CTCTATGA | 0.236
207 | GTGTACAA | 0.0596
208 | GGCTTTAC | 0.0995
209 | ACCGGAGT | 0.0908
210 | AAGCCATA | 0.102
211 | ACGCTCCC | -0.0617
212 | TCTTTTCA | 0.017
213 | GAACGGTC | -0.211
214 | AATATATC | -0.0361
215 | AGGAAAAT | -0.107
216 | ATTACCAC | -0.0144
217 | AACTGACA | -0.287
218 | GAAGCTTA | -0.146
219 | CTATGTAC | -0.0546
